Values joined by “and” are separate entries in the source; they are usually repeats but may differ in a detail not shown here. Identical values can stand only once.
[1] = Homo sapiens, pH 5, 20 °C, GdnHCl, CD, Sodium acetate 0.01 M, reversible: yes
[2] = Homo sapiens, pH 7, 20 °C, Urea, CD, Sodium phosphate 10 mM, reversible: no
[3] = Homo sapiens, 25 °C, Urea, Fluorescence, transition: 2
[4] = Gallus gallus, pH 0.9, 25 °C, GdnHCl, CD, Unknown, KCl 0.6 M, reversible: yes
[5] = Gallus gallus, pH 0.9, 25 °C, GdnHCl, CD, Unknown, KCl 0.6 M, transition: 3, reversible: yes
[6] = Gallus gallus, pH 2.2, 25 °C, GdnHCl, CD, Unknown, KCl 0.6 M, reversible: yes
[7] = Gallus gallus, pH 2, Thermal, DSC, Unknown, reversible: Unknown
[8] = Gallus gallus, pH 5.2, 20 °C, GdnHCl, CD, NaOAc 20 mM, reversible: Unknown
[9] = Gallus gallus, pH 7.5, 25 °C, Thermal, CD, Sodium phosphate 0.01 M, NaCl 0.15 M, reversible: yes
[10] = Gallus gallus, pH 3, Thermal, DSC, glycine 0.05 M, reversible: yes
[11] = Gallus gallus, pH 3.8, Thermal, NMR, sodium acetate 240 mM, reversible: yes
[12] = Gallus gallus, pH 2, Thermal, DSC, glycine 0.04 M, reversible: yes
[13] = Gallus gallus, pH 3.8, Thermal, DSC, glycine-HCl 50 mM, reversible: Unknown

For “Alpha-1-acid glycoprotein 1 wild type (sequence left out)”, which “denaturant midpoint (higher = more stable)” value (“denaturant midpoint” below) [1] is on record?
The value was 2.1 M.

What about the unfolding free energy [1] of the same substance?
The unfolding free energy was 5.1 kcal/mol.

What about the Tm (Homo sapiens, pH 5.25, Thermal, CD, glycylglycine 0.05 M, reversible: yes) of the same substance?
The Tm was 46.6 °C.

Which Tm (Homo sapiens, pH 7, Thermal, fluorescence, reversible: Unknown) does the source give for “Beta-2-microglobulin wild type (sequence left out)” here?
The Tm was 60.1 °C.

With “Beta-2-microglobulin wild type (sequence not shown)” as the substance, how does the Tm (Homo sapiens, pH 8, Thermal, CD, Tris-HCl 20mM, NaCl 150mM, reversible: Unknown) read?
Its Tm is 62.4 °C.

Which “denaturant midpoint” value [2] does the source give for “Fibroblast growth factor 2 wild type (letters omitted)” here?
Its value is 2.3 M.

What about the unfolding free energy [2] of the same substance?
Its unfolding free energy is 6.5 kcal/mol.

For “Fibroblast growth factor 2 wild type (no sequence given)”, which unfolding free energy (Homo sapiens, pH 6.2, 25 °C, GdnHCl, DSC, N-(2-acetamino)iminodiacetic acid (ADA) 20 mM, NaCl 0.1 M, reversible: yes) is on record?
The unfolding free energy was 5.08 kcal/mol.

What about the unfolding free energy (Homo sapiens, pH 6.2, 25 °C, GdnHCl, Fluorescence, N-(2-acetamino)iminodiacetic acid (ADA) 20 mM, NaCl 0.1 M, reversible: yes) of the same substance?
Its unfolding free energy is 5.24 kcal/mol.

For “Fibroblast growth factor 2 wild type (sequence not shown)”, which Tm (Homo sapiens, pH 7.2, Thermal, CD, Sodium phosphate 6 mM, NaCl 120 mM, reversible: yes) is on record?
The Tm was 45 °C.

For “Immunoglobulin heavy constant gamma 1 wild type (letters omitted)”, which denaturant m value [3] is on record?
The denaturant m value was 1.69 kcal/mol/M and 1.74 kcal/mol/M.

And the unfolding free energy [3]?
The unfolding free energy was 5.2 kcal/mol and 5.4 kcal/mol.

And the Tm (Homo sapiens, pH 7.4, Thermal, CD, PBS, transition: 2)?
The Tm was 52.6 °C.

For “Lysozyme C wild type (chain not printed)”, which Tm (Gallus gallus, pH 3.8, Thermal, CD, Unknown, reversible: yes) is on record?
The Tm was 74.3 °C.

For Lysozyme C wild type (letters omitted), which denaturant m value [4] is on record?
The denaturant m value was 2.48 kcal/mol/M.

And the unfolding free energy [4]?
Its unfolding free energy is 4.84 kcal/mol.

And the denaturant m value [5]?
The denaturant m value was 1.26 kcal/mol/M.

What about the unfolding free energy [5] of the same substance?
Its unfolding free energy is 3.63 kcal/mol.

And the denaturant m value [6]?
The denaturant m value was 2.53 kcal/mol/M.

What about the unfolding free energy [6] of the same substance?
The unfolding free energy was 5.79 kcal/mol.

Which results are given for “Lysozyme C wild type (no sequence given)”?
Tm [7]: 55 °C; unfolding enthalpy (calorimetric) [7]: 102 kcal/mol; denaturant m value [8]: 2.63 kcal/mol/M; unfolding free energy [8]: 11.1 kcal/mol; Tm (Gallus gallus, pH 7, Thermal, CD, Potassium phosphate 66 mM, reversible: yes): 74.8 °C; Tm (Gallus gallus, pH 7, Thermal, CD, phosphate 66 mM, reversible: yes): 74.8 °C; heat capacity change of unfolding [9]: 1.5 kcal/mol/K; unfolding free energy [9]: 3.6 kcal/mol and 5 kcal/mol and 4.8 kcal/mol

What does the source list for “Lysozyme C wild type (sequence left out)”?
Tm (Gallus gallus, pH 2.7, Thermal, DSC, glycine-HCl 50 mM, reversible: yes): 65.6 °C; unfolding free energy (Gallus gallus, pH 3, 25 °C, Thermal, DSC, glycine 0.05 M, reversible: yes): 11 kcal/mol; Tm [10]: 72.5 °C; heat capacity change of unfolding [10]: 1.48 kcal/mol/K; unfolding enthalpy (calorimetric) [10]: 117 kcal/mol; Tm [11]: 74.8 °C; unfolding enthalpy (van 't Hoff) [11]: 93.7 kcal/mol

For “Lysozyme C wild type (sequence not shown)”, which Tm [12] is on record?
Its Tm is 52 °C.

And the “heat capacity change of unfolding” value [12]?
Its value is 1.55 kcal/mol/K.

What about the “unfolding enthalpy (calorimetric)” value [12] of the same substance?
The value was 91.2 kcal/mol.

And the “unfolding enthalpy (van 't Hoff)” value [12]?
The value was 89.5 kcal/mol.

What about the unfolding free energy (Gallus gallus, pH 3.8, 25 °C, Thermal, DSC, glycine-HCl 50 mM, reversible: Unknown) of the same substance?
Its unfolding free energy is 12.9 kcal/mol.

What about the Tm [13] of the same substance?
Its Tm is 77.5 °C.

What about the “heat capacity change of unfolding” value [13] of the same substance?
The value was 1.51 kcal/mol/K.

And the “unfolding enthalpy (calorimetric)” value [13]?
The value was 129 kcal/mol.

And the unfolding free energy (Gallus gallus, pH 5.4, 20 °C, LiCl, Absorbance, Unknown, reversible: Unknown)?
Its unfolding free energy is 20 kcal/mol.

What about the “denaturant midpoint” value (Gallus gallus, pH 5.5, 35 °C, GdnHCl, Fluorescence, sodium acetate 0.1 M, HCl, reversible: Unknown) of the same substance?
Its value is 3.4 M.

For “Triosephosphate isomerase wild type (sequence left out)”, which unfolding free energy (Oryctolagus cuniculus, pH 7.4, 25 °C, GdnHCl, Fluorescence, phosphate 50 mM, reversible: Unknown) is on record?
Its unfolding free energy is 17 kcal/mol and 16.5 kcal/mol.
